Test [1] has as its target recombinant human PDGF-BB (human) (UniProt P01127). As to the kind of experiment: BLI; BLItz instrument (ForteBio), real-time binding, shift in nm; the legends call it surface plasmon resonance (BLItz system); who was immobilised is not stated; both purified.
Another test concerns the target T1, Kai1-GFP fusion protein (UniProt P40237).
T1 sequence: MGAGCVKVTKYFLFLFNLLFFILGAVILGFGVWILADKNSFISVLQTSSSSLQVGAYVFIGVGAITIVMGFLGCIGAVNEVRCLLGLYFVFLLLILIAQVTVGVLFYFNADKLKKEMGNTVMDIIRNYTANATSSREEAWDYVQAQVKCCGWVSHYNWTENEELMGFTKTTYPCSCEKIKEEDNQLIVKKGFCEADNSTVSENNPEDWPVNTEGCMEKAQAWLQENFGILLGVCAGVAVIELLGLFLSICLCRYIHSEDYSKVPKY
Description: co-IP; Kai1-Gfp fusion vector and Dhhc-Ha vectors co-transfected into 293T cells; 23 zDHHC enzymes screened.

By UniProt entry, the sequences of proteins in these tests, tags left out. Residues count along the entry.
UniProt P01127, residues 82-190: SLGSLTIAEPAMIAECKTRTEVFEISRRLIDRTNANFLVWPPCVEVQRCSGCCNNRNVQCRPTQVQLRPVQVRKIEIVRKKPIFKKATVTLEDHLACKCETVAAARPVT

In test [2] the target is recombinant human PDGF-BB (human) (UniProt P01127). As to the kind of experiment: co-IP; 293T cell lysates in IP buffer, anti-VEGF-A or anti-PDGF-BB antibody overnight at 4 °C, protein A/G sepharose, western blot; legend names rhVEGF-A and rhPDGF-BB; only the target purified.
Test [3] shares this target. As to the kind of experiment: condition: only cells treated with 2-bp (inhibitor of palmitoylation); co-IP; as a3, 293T cells treated with 2-bp (inhibition of palmitoylation); only the target purified.

Results on five molecules are retold here after article PMC8444549.

These are yes or no findings as the source states them, for the method shown. For part of these data: Binding seen in cells or lysates may run through a third protein. Some binding calls cover weakened binding; strength is not graded here. For part of these data: Tags and fused reporters may be left off the sequences shown.

B1: KAI1 peptide, mutant sequence (peptide)
peptide: NRPEVTAPASCEVKGAAANS
Take B1: in test [1], the binding result is “no binding”.

B2: KAI1 peptide, wild-type sequence (peptide)
peptide: NRPEVTYPCSCEVKGEEDNS
B2: the binding result in test [1] is recorded as “binds”.

B3: zDHHC4-HA (enzyme, UniProt Q9D6H5 1-343)
chain: MDFLVLFLFYLAFLLICVVLICIFTKSQRLKAVVLGGAQVCSRVIPQCLQRAVQTLLHQLFHTRHPTFIVLHLLLQGLVYAEYTCEVFGYCRELEFSLPYLLLPYVLLSVNLVFFTLTCAANPGTITKANESFLLQVYKFDDVMFPKNSRCPTCDLRKPARSKHCRLCDRCVHRFDHHCVWVNNCIGAWNTRYFLIYLLTLTASAATIATVTAAFLLRLVTVSDLYQETYLDDVGHFQAVDTVFLIQHLFLAFPRIVFLLGFVIVLSMLLAGYLCFALYLAATNQTTNEWYKGDWAWCQRWPLVAWSPSAEPRIHQNIHSHGFRSNLREIFLPATPSYKKKEK
Take B3: the binding result with Kai1-GFP fusion protein is listed as “binds”.

B4: KAI1-Myc (protein, UniProt P40237 1-266)
chain: T1 sequence
Turning to B4, the binding result in test [2] was “binds”; in test [3] it was “no binding”.

B5: zDHHC3-HA (enzyme, UniProt Q8R173 1-299)
chain: MMLIPTHHFRDIERKPEYLQPEKCAPPPFPGPAGAMWFIRDGCGIACAIVTWFLVLYAEFVVLFVMLVPSRDYAYSIINGIVFNLLAFLALASHCRAMLTDPGAVPKGNATKEFIESLQLKPGQVVYKCPKCCSIKPDRAHHCSVCKRCIRKMDHHCPWVNNCVGENNQKYFVLFTMYIALISLHALIMVGFHFLHCFEEDWTKCSSFSPPTTVILLILLCFEALLFLIFTSVMFGTQVHSICTDETGIEQLKKEERRWAKKTKWMNMKAVFGHPFSLGWASPFATPDQGKADPYQYVV
On to B5, for which the binding result with Kai1-GFP fusion protein was “binds”.
